B1: PLTGBH03-BT613-IgG1 (other)
heavy: EVQLVQSGGGVVQPGKSLRLSCAASGFTFSSYSMHWVRQAPGKGLEWVALISFDGSNKYYADSVKGRFTISRDNSKNTLYLQMTSLRTEDTAVYYCARDRIYLDYWGQGTLVTVSS[human IgG1 constant region not listed]GGGGSGGGGSGGGGSGGGGSGIPPHVQKSVNNDMIVTDNNGAVKFPQLCKFCDVRFSTCDNQKSCMSNCSITSICEKPQEVCVAVWRKNDENITLETVCHDPKLPYHDFILEDAASPKCIMKEKKKPGETFFMCSCSSDECNDNIIFSEEYNTSNPD
light: ELVLTQSPDSLAVSLGERATINCKSSQSVLYSSNNKNYLAWYQQKPGQPPKLLIYWASTRESGVPDRFSGSGSGTDFTLTISSLQAEDVAVYYCQQYYSTPLTFGGGTKVDIKRTVAAPSVFIFPPSDEQLKSGTASVVCLLNNFYPREAKVQWKVDNALQSGNSQESVTEQDSKDSTYSLSSTLTLSKADYEKHKVYACEVTHQGLSSPVTKSFNRGEC
notes: Bifunctional fusion protein: anti-PDL1 IgG1 antibody with a TGFβRII fragment at the C-terminus of the heavy chain; also called BA613
B2: PLTGBQ24-BA603-IgG1 (other)
heavy: B1 heavy with K16R, S33A, F53Y, T69I, I70T, T84N, T88A, L103F
light: B1 light with E1D, L2I, L4M, T100I, L102I, G106Q, V110L, D111E
notes: Bifunctional fusion protein: anti-PDL1 IgG1 antibody with a TGFβRII fragment at the C-terminus of the heavy chain
B3: PLTGBQ21-BA669-IgG1 (other)
heavy: B1 heavy with E1Q, Q6E, K16R, S33A, F53Y, T84N, T88A, L103F
light: B1 light with E1D, L2I, L4M, V13M, S32N, I54T, T100L, D111E
notes: as for B2
B4: PLTGBQ21-BA623-IgG1 (other)
heavy: B1 heavy with K16R, S31N, S33A, F53Y, T84N, T88A, L103F
light: B1 light with E1D, L2I, V3Q, L4M, T59I, E61D, V89A, Y97F, T100I, D111E
notes: as for B2
B5: PLTGBQ16-BA466-IgG1 (other)
heavy: B1 heavy with K16R, S33A, L50A, F53Y, T84N, T88A, Y102F, L103F
light: B1 light with L2I, L4M, Y55D, T100F, D111E
notes: Bifunctional fusion protein: anti-PDL1 IgG1 antibody with a TGFβRII fragment at the C-terminus of the heavy chain; also called BA446

Where a chain is given by its changes, count along the chain named.

For orientation: Kd means the equilibrium constant for the complex coming apart. One may read the koff as the rate constant with which the complex falls apart. A high value points to fast dissociation. As a reminder, the kon is a measure of how fast the partners come together. A lower kon goes with slow association.

The target of the first test is T1, TGFβ1 (Sinobiological, catalog number: 10804-HNAC) (UniProt P01137 fragment).
T1 construct: Bought recombinant protein; also called TGFβ1 protein
T1 sequence (P01137 279-390 limits assumed): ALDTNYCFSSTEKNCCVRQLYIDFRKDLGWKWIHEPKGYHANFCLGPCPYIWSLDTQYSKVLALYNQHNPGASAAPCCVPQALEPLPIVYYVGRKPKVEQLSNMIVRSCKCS
The test can be described thus: ELISA, TGFβ1 coated at 0.2 µg/mL, fusion protein 1 µg/mL.
As to B1, the OD450 came to 3.4 OD450.
With B2, the OD450 was 3.92 OD450.
For B3, the OD450 was 3.93 OD450.
Regarding B4, the OD450 is 3.85 OD450.
The same measure, in the same setting: as for B5, the figure is 3.83 OD450.

For another test, the target named is T1, TGFβ1 (Sinobiological, catalog number: …). The test can be described thus: ELISA, TGFβ1 coated at 0.05 µg/mL, fusion protein 1 µg/mL.
B1 gave an OD450 of 1.46 OD450.
Molecule B2 displayed an OD450 of 2.37 OD450.
In turn, B3 gave an OD450 of 2.35 OD450.
For the molecule B4, the OD450 stood at 2.3 OD450.
In turn, B5 had an OD450 of 2.01 OD450.

For another test the target is unchanged. Kind of test: ELISA, TGFβ1 coated at 0.0125 µg/mL, fusion protein 1 µg/mL.
B1 displayed an OD450 of 0.388 OD450.
B2 had an OD450 of 0.861 OD450.
B3 showed an OD450 of 0.728 OD450.
The molecule B4 registered an OD450 of 0.813 OD450.
For the molecule B5, the OD450 was 0.88 OD450.

The target of the next test is T2, PDL1 protein (Sinobiological, catalog number: 10084-H08H) (UniProt Q9NZQ7 fragment).
T2 construct: Bought recombinant protein
T2 sequence (Q9NZQ7 19-239 limits assumed): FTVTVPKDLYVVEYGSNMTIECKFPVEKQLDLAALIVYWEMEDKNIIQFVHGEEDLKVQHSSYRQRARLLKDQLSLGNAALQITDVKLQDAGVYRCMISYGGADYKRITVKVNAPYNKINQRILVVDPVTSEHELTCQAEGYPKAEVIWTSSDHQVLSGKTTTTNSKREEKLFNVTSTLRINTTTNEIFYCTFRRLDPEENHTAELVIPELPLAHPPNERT
Kind of test: SPR (BIAcore 8K), fusion protein captured by anti-human IgG Fc, PDL1 as analyte 3.125-50 nM, 1:1 model.
As to B1, binding was characterised by a dissociation constant (Kd) of 0.73 nM, the koff is 0.00101 s⁻¹ and the kon is 1.39e+06 M⁻¹ s⁻¹.
For B2, the Kd came to 0.963 nM, the koff turned out to be 0.00164 s⁻¹ and the on-rate (kon) worked out at 1.7e+06 M⁻¹ s⁻¹.
In the case of B3, the Kd is 0.764 nM, the koff turned out to be 0.00136 s⁻¹ and the kon was 1.78e+06 M⁻¹ s⁻¹.
Consider B4, for which binding was put at a Kd of 1.34 nM, the off-rate constant (koff) is 0.00179 s⁻¹ and the kon worked out at 1.34e+06 M⁻¹ s⁻¹.
In the case of B5, the affinity, expressed as Kd, was 2.03 nM; the koff is 0.00232 s⁻¹; the kon was 1.14e+06 M⁻¹ s⁻¹.

The values are drawn from patent US20220213195A1 (SHANDONG BOAN BIOTECHNOLOGY, published 2022).
